In PubChem BioAssay AID588855 (National Center for Advancing Translational Sciences (NCATS), 2011):
In all, about 410,000 compounds went through this assay and about 5,000 (1.2%) were called active. The shares of active, inactive and inconclusive entries below differ from those in the screen. Calls come from the whole dose curve; as a rule, active = well fitted inhibition curve with a large enough effect; inconclusive = small, poorly fitted or top-dose-only effect; inactive = no such curve, though single readings can be large or run the other way. Potencies of inconclusive entries are doubtful fits and often do not repeat.

Test: qHTS for Inhibitors of TGF-b; note: nearly all actives have a fitted effect of over 65% in size
Conditions: HepG2 CAGA-GFP TGF-b/SMAD3 reporter, GFP fluorescence, 18 h, TGF-beta stimulated, 500 pg/mL final; series mostly up to 46.1 µM
In short: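 TGF-beta reporter screen: HEPG2 CAGA-GFP, 1% FBS, 500 pg/mL TGF-beta final, 18 h; per-cell GFP summed per well; curves fitted and categorized by class.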
Potency is the fitted concentration of half-maximal effect; tags give direction and shape of the fitted curve.

| SMILES | Potency |
| --- | --- |
| O=C(OCC(=O)N1CCN(S(=O)(=O)c2ccccc2)CC1)c1ccc([N+](=O)[O-])o1 | inactive |
| CC(=O)C(C(C)=O)c1c(Cl)c(O)c(O)c2c(C(=O)c3ccccc3)coc12 | inconclusive: 22.4 µM [inhibitor, partial curve, poor fit] |
| COc1cccc(/C(C)=N/NC(=O)c2cc(-c3cccnc3)nc3ccccc23)c1 | inactive |
| COc1cc(C(=O)Nc2ccc3oc(-c4ccccc4)nc3c2)cc(OC)c1OC | inconclusive: 35.5 µM [inhibitor, single point] |
| COc1ccc(NC(=O)C(OC(=O)c2ccc([N+](=O)[O-])o2)c2ccccc2)cc1Cl (configuration not stated) | inconclusive: 12.6 µM [inhibitor, partial curve, poor fit] |
| COc1ccc(-c2nc(C(=O)NCC3CCCO3)cc3c2[nH]c2ccccc23)cc1 (configuration not stated) | inactive |
| CCOC(=O)Cn1c(S(=O)(=O)Cc2ccccc2)nc2ccccc21 | inconclusive: 35.5 µM [inhibitor, partial curve, poor fit] |
| Cc1ccc(-c2nc(SCC(=O)NCC3CCCO3)c(-c3ccccc3)[nH]2)cc1 (configuration not stated) | inconclusive: 35.5 µM [inhibitor, single point] |
| Cc1ccc(-c2nnc(Nc3ccc(CC(N)=O)cc3)c3ccccc23)cc1S(N)(=O)=O | inconclusive: 35.5 µM [inhibitor, single point] |
| CC(O)(c1ccccc1)C(C(c1ccccc1)N1CCOCC1)N1CCOCC1 (configuration not stated) | inactive |
| CC(C)Cn1c2c(c(O)c(C(=O)Nn3c(Cc4ccccc4)nc4ccccc4c3=O)c1=O)CCCC2 | inactive |
| COc1ccccc1C(=O)N/C(=N/c1nc(C)cc(C)n1)Nc1ccccc1 | inconclusive: 15.8 µM [inhibitor, single point] |
| Cc1cc2c(N3CCCCC3C)ncnc2s1 (configuration not stated) | inactive |
| Cc1nn(-c2ccccc2)c(C)c1C(=O)OC(C)C(=O)NC1CCCCC1C (configuration not stated) | inactive |
| COC(=O)c1ccccc1NC(=O)c1ccc(Cn2cc(Cl)cn2)o1 | inactive |
| COc1nc(OCC#N)nc(N2CCCCC2)n1 | inconclusive: 3.55 µM [inhibitor, partial curve] |
| CCNC(=S)N(CCc1c(C)[nH]c2ccc(C)cc12)Cc1cccs1 | inconclusive: 0.501 µM [inhibitor, full curve, poor fit] |
| Cc1ccccc1-c1nc(CS(=O)(=O)CC(=O)NCc2cccc(Cl)c2)c(C)o1 | inconclusive: 35.5 µM [inhibitor, single point] |
| Cc1nc(NCc2ccccc2)sc1C(=O)Nc1ccccc1 | inactive |
| COc1cccc(N2CCN(C(=O)c3cc(C)oc3C)CC2)c1 | inconclusive: 35.5 µM [inhibitor, single point] |
| CCC1=Nc2cc(C(=O)NC3CCCC3)ccc2Sc2ccc(Br)cc21 | inconclusive: 5.01 µM [inhibitor, full curve, poor fit] |

| SMILES | Potency |
| --- | --- |
| Oc1ccc(Cl)cc1C1C=C(c2ccc3c(c2)OCO3)NC(c2ccc(C(F)(F)F)cc2)N1 (configuration not stated) | active: 15.8 µM |
| Cc1ccc(N2CC(C(=O)Nc3ccc(Br)cc3)CC2=O)cc1 (configuration not stated) | inconclusive: 7.08 µM [inhibitor, full curve] |
| CCN(Cc1ccccc1)C(=O)COc1cc(=O)n(CC)c2ccccc12 | inactive |
| COc1ccc(-n2ncc3c(NCCC4=CCCCC4)ncnc32)cc1 | inactive |
| O=C(c1ccc([N+](=O)[O-])s1)N1CCN(c2ccc(C(F)(F)F)cn2)CC1 | inconclusive: 14.1 µM [inhibitor, partial curve, poor fit] |
| Cc1noc(/C=C/c2ccco2)c1S(=O)(=O)N1CCC(C(=O)Nc2ccc(F)c(Cl)c2)CC1 | active: 2.51 µM |
| C/C(=N\NC(=O)c1ccc(OC2OCCOC2Oc2ccc(C(=O)N/N=C(\C)c3ccncc3)cc2)cc1)c1ccncc1 (configuration not stated) | inconclusive: 8.91 µM [inhibitor, partial curve, poor fit] |
| Cc1ccc(-c2noc(CSc3nnc(CCc4ccccc4)n3-c3ccccc3)n2)cc1 | inconclusive: 35.5 µM [inhibitor, single point] |
| O=C(Nc1ncc(Cc2cc(Cl)ccc2Cl)s1)c1ccc([N+](=O)[O-])cc1 | inconclusive: 20 µM [inhibitor, single point] |
| NC(=NC(=O)c1ccc(OCC(F)(F)F)nc1)c1ccccc1 | inconclusive: 12.6 µM [inhibitor, single point] |
| Cc1ccc2sc(N3CCN(C(=O)CCS(=O)(=O)c4ccc(F)cc4)CC3)nc2c1C | inconclusive: 4.47 µM [inhibitor, full curve, poor fit] |
| O=[N+]([O-])c1cc(CN2CCCC2)ccc1Sc1ccc(Cl)cc1 | inconclusive: 0.891 µM [inhibitor, full curve] |
| CCOC(=O)Cn1c(CN2CCc3ccccc3C2)nc2c1c(=O)n(C)c(=O)n2C | inconclusive: 7.94 µM [inhibitor, partial curve, poor fit] |
| O=C1Nc2c(Cl)cccc2C1=O | inconclusive: 35.5 µM [inhibitor, single point] |
| Cc1ccc(NC(=O)CN(C)C(=O)COc2ccccc2-c2ccccc2)cc1 | inactive |
| Cn1cc(/C=C/c2nc3ccccc3c(=O)n2-c2cccc([N+](=O)[O-])c2)c2ccccc21 | inconclusive: 35.5 µM [inhibitor, single point] |
| COc1ccc(Cn2c(C(=O)O)c(CNC3CCCCCC3)c3ccc(OC)cc32)cc1 | inconclusive: 6.31 µM [inhibitor, full curve, poor fit] |
| CN1C(=O)C(C)(C)c2cc(S(=O)(=O)N3CCCC(C(=O)Nc4ccc(Cl)cc4)C3)ccc21 (configuration not stated) | inconclusive: 35.5 µM [inhibitor, single point] |
| C=Cn1cc[n+](CC(=O)c2ccc(C)cc2)c1 | inactive |
| CCCCC(=O)Nc1ccc(C(=O)NNC(=S)NC(=O)c2cccs2)cc1 | inconclusive: 2.82 µM [inhibitor, single point] |
| O=C(CSC1=NNC(c2ccccn2)S1)Nc1ccccc1 (configuration not stated) | inconclusive: 0.501 µM [inhibitor, full curve, poor fit] |
